For the experiment, the system named is NCI-H322M lung. Nature of the experiment: NCI tumour cell line growth inhibition, 48 h.

SMILES strings stand for the structures.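 Method: 48-hour compound exposure of cells in 96-well plates, five concentrations, linear interpolation of endpoints. GI50 is the concentration that inhibits growth by half. Definition used: TGI = concentration required for complete inhibition of growth.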

Consider `O=C(NCCCN(CCCCN(CCCNC(=O)c1cc(S(=O)(=O)O)cc(O)c1O)C(=O)c1cc(S(=O)(=O)O)cc(O)c1O)C(=O)c1cc(S(=O)(=O)O)cc(O)c1O)c1cc(S(=O)(=O)O)cc(O)c1O`, for which the TGI was greater than 100 µM.
Turning to `CC(=Nc1ccc(Cl)c(Cl)c1)c1ccncc1`, the TGI is greater than 100 µM.
Same read-out and setting: with `O=C1CC2CC(CC3(CO3)C2)C1F` (configuration not stated) the figure was greater than 100 µM.
Consider `COc1cc(/C=C/C(=O)c2c(-c3ccc(F)cc3)nc3sc(C)nn23)cc(OC)c1OC`, for which the GI50 was 2.88 µM and the TGI worked out at 9.07 µM.
`O=C(CC1(O)C(=O)Nc2c(Cl)cc(Cl)cc21)c1ccc(F)cc1` (configuration not stated) returned a TGI greater than 100 µM.
Consider `CN(/N=C\c1ccnc2ccccc12)c1ccccc1`, for which the TGI is greater than 100 µM.
Consider `CC(C)Cc1ccc(C(C)C(=O)NCc2ccc(Cn3c(=O)sn(CCCI)c3=O)cc2)cc1` (configuration not stated), for which the GI50 is 1.54 µM and the TGI came out at 2.95 µM.
As for `O=C(O)CCN(CCCN(CCC(=O)O)CCC(=O)O)CCC(=O)O`, the TGI is greater than 100 µM.
The same measure, in the same setting: then `COC(=O)/N=[N+](\[O-])C(c1ccccc1)c1ccccc1`, with greater than 100 µM.
Turning to `O=C1C(c2ccccc2)=C(c2ccccc2)C(c2ccc(Sc3ccc(C4=C(c5ccccc5)C(=O)C(c5ccccc5)=C4c4ccccc4)cc3)cc2)=C1c1ccccc1`, the TGI was greater than 100 µM.

(Values after PubChem BioAssay (NCI).)
